Over roughly 2,300 sequences, “median log2 fold change of GCK-ALFA target abundance (FLAG IP / Myc IP barcode read proportion)” has its median near 0.095; the lowest 2% begin near -0.47. The list shows a part of the results.
B1: LC3A_147_503 (protein)
chain: YLLKVDIDIIVKNAEEEVKKMVEEIEEELKKKGFEVKVKINIEQLDENTTYISINIEVKAKTKEEAEEAANYIIDKFDKYLEENKDKILGALISVEIEKE
B2: LC3A_28_866 (protein)
chain: MTIEEIVAAARAQAEADAARGEPIVLTVEVTSSMSLEEAIELMERVLAIAREFVERTGLPVHIVVDHDGDQEKLDALLDLADEAEAADPRITVYIALSEE
B3: LC3A_28_1239 (protein)
chain: SAVEAQIAAARAEVEAAVAAGEEALVTLTVTGSDTQEDIDKIIAAMEEIAELAATLPALSIVIDVGKDVPQEHIDKLADAAEEIEERYPNVTVIIALEER
B4: LC3A_free_46_2329 (protein)
chain: VKLEISIDLLHEDEEKMKEAVEEIKKEIEKIAKEYNAKVEIKVEISKDEDGSYFAKIDITVEAETKEKAQEIKTKIIDKIEEIAEKYDISMIISYEIIEE
B5: LC3A_28_1136 (protein)
chain: SSIVERAKAQIEEDAEKDKDSPEVLLNVTITGSITVEEAKEIMDYVEEVVEKLKDKEKIFVLVTAEEPISQEVLDTILERGDELEKKFPNVDVIVALPED
B6: LC3A_45_1997 (protein)
chain: MAEVTVDVYGKGEDVIAFLKKVKERIEKLVKEKGLNLKVDEEALKKELERAKKEEEVVAELKIYSEATQEAIDAILDAIDEAQEEVGDSVSYIISIEELP
B7: LC3A_28_798 (protein)
chain: SEVRENVEKALEEARKQIEAGEEVFIEIKIPKDATKEEIEYVAEAIEEIAREAKKAGIKSVNVVVDNENNEEAVTILDETEDRLRKEGLPINIVIALEEP
B8: LC3A_78_2091 (protein)
chain: MVTIVAYATEETKPEAERIAAKDKQSEEVKVIPLEDLEKELEKYKDAEEIDVIVVAPTLEEVEEAIEKVKELFKDKKVSSIIEIDEETGFYTGHILVTKK
B9: LC3A_3_1474 (protein)
chain: LEERLKEVLEKLKEAGASEEVLEAVKKAAEYLKSLGHEEALKTFIEEVEELVGLPSELLLWFAEEVLEAAEKYKDDEEKLIKEIESIARATKSEAEIEEL
B10: LC3A_147_487 (protein)
chain: AEVSVDIIVKSEEAAEKIIEKVKEIVEELKKKGINVELKIEVEELEEGVYYVKITIKINAETQEEAKKAANEVVQKLDEIIEELKDEVLASLISIEETER
B11: LC3A_3_1409 (protein)
chain: MEERIEETLEELRAAGHSEETLEAFRELMDLLLARGAEEEAEEAIELVREAKDISSELLLEVLNEVIEALTEEGISPEEALELLKELLRIARNEQEIIEL
B12: LC3A_3_1387 (protein)
chain: MEERIERLLELLKEAGHSEETIEAVRRALEALVEKGYEKAAEKFIELLEELKHLPDETILALAEEVLELIETSDLNEEELTKKIEELATVFRNESEIIEL
B13: LC3A_147_478 (protein)
chain: AEVDIDVLVKNEETAERLIEMVRELEEELREKGIKVEVEIEREQLDENTWYVHVRIRIEAETEEEERAAADEVVDRFEEFEEENKDEVLASMISVEFIKP
B14: LC3A_free_8_2466 (protein)
chain: SNQELVNALVEELDKLEEEVRKKAKELGLSELDILELELEIGSAIAEVISLVDKSPEEIIKAYKEEMEEIKKLAKELSPELAKVVKEAEEEALKEAKKLE
B15: LC3A_28_1270 (protein)
chain: SEIEKELEKAKAAALEAKAAGEPAVITITVPGGATQEDIEKVKKGLEEIAKILSSVPDQAIIIDVESGVKQEHIDKLADKAEEIEKKYPNVTVIIALDED
B16: LC3A_28_1247 (protein)
chain: SAIDEQLAAAKKEAEEAKAKGEEVLVTLTVTADATQEDIDKVIAAMKEIAELTKDLPSTSIIVDLEKGVKQENIDKLADAGEEIEKKYPNVTVILALEEE
B17: LC3A_127_222 (protein)
chain: MLEEIRELAEEAAKLARKAIEDPSLDKQEALKKIEKLLKEALKLAKEAGVPEEVIKDIEQALKIAEEAKKLTPEEQLEALKQLELLADGIAIELDSLILK
B18: LC3A_3_1900 (protein)
chain: LEEEIEATLALLAAAGASEETLAAFREVAERLLERGYEEALRTLIEEMRELVDLPSELLLDFLREVLEVIETEDLSEEELIERIREIARLTLNEGEIEEL
B19: LC3A_free_46_2422 (protein)
chain: MTLEITIDFIAETKETAEKVSEEIVKLIKELAEKLGVEVEIEVKIEKLEDGTYYVEIKATIKGVTKEQAEQIENELTEKVEEIFEKYPGILGSIISFELK
B20: LC3A_3_1642 (protein)
chain: MEEEIEETLRLLKEAGASEETLEAFRRLAELLKERGFEEALRTLIEEVRELADLPSELLLDFLEEVLYVVETEDLDEEELIERIREIARVTRSEAEIIEL
B21: LC3A_free_46_2352 (protein)
chain: VEAKIEIDLLADDKEKLEKAVEEIIKKIKEIAKKYGLEVEINYEISKLEDGSYYAKIEITLKGEDLEDVKKAVNELINEIEEIAEKYGVSAVISYEIEDV
B22: LC3A_28_938 (protein)
chain: MTTEEDNERALEEAREAAERGEPVVVTLTVKGTDTEEDVENLIETMREIAEILKDVKGAAIVVDVEAGVPQEFIDKIADTGEEIEKKYPNINVIIALDED
B23: LC3A_3_1880 (protein)
chain: MEEARAATLAALKAAGQSEETIAAAERLFDLLAARGWEEAAETLIAELLELLGLPSELVLDFIEDVLETLETEDLSEEELIEEIERLARLARNEGEIEEL
B24: LC3A_free_8_2526 (protein)
chain: KNQALATAASAIIDEAEEKIVALLKEKGMSELDILEAELLLGSIIAEVISAVDKSIEDILKIIREGFEEIVEELSEVKEEVTEIMEEALKKIEEKAKELS
B25: LC3A_28_1052 (protein)
chain: SHIDEQIEKALKEAEEAKAKGEEALIELHIGKDANEEDVEKVLETIEKIAEITKDLPSVTIIVDVDNPNKEEVTKKIDEVGEELAKKYPNVTVIIALSEE
B26: LC3A_free_39_2193 (protein)
chain: SAAETEKAKAELLALAAEAGEEAKKLAEEIIKLIGEDLEKLKKLLEALKKAKEAGVDVLEVLKEALELAKELKKQGKSKEEIFEEVLELIEDAINLIPID
B27: LC3A_3_1533 (protein)
chain: MEEKIEEALERLREAGASEETIEAFERAFELLKERGYEEALETLIEEMEELIDAPDEILLWFAEEVLELIETSDLNEEELIEEIKRIARIAKNESEIEEL
B28: LC3A_59_2035 (protein)
chain: SAEAEAAAARVRERGPSVDVVAEVFREVLEKNGLDPELARDLVAALVAVLVEAGLITAEEGAAIRAEADAAIDRLTDVDELVSELRVIILDALLKKNELE
B29: LC3A_23_614 (protein)
chain: TWRITLIADLITEEEEVEAAIERARAAIAALLAEHADVILEARVEVEVEKLEDGRYFLSIRVTIVTNASREEAEALREALEAALDEALPGAVISSEVEEL

Biological target: MAP1LC3A, Q9H492
Test: median log2 fold change of GCK-ALFA target abundance (FLAG IP / Myc IP barcode read proportion) (log2 ratio); each designed protein is fused to an ALFA-tag nanobody in HEK293 cells to bring the named protein to FLAG-tagged glucokinase (GCK); Myc marks an untargeted standard; higher = target protein stabilised (more abundant)
Settings: target protein: 3xFLAG-MCP-GCK-ALFA reporter; HEK293 landing pad (RPLP)
Method in brief: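 An ALFA-nanobody-fused binder library was recombined into HEK293 landing-pad cells and induced with 2 μg mL^−1 doxycycline. Cells were transfected with a plasmid expressing a FLAG-tagged target and a Myc-tagged standard. After 48 h, lysates underwent anti-FLAG and anti-Myc immunoprecipitation, and circular RNA barcodes were reverse transcribed, amplified and sequenced. Target abundance is the per-binder median log2 ratio of FLAG to Myc barcode read proportions. Barcodes needed ≥10^−7 proportion in both replicates, binders ≥3 barcodes per replicate, and a 10^−6 pseudocount was added; the two replicates were pooled.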

Row | Binder | median log2 fold change
1 | B1 | -0.665
2 | B2 | -0.238
3 | B3 | 0.0755
4 | B4 | 0.177
5 | B5 | -0.152
6 | B6 | -0.323
7 | B7 | -0.316
8 | B8 | 0.24
9 | B9 | 0.169
10 | B10 | -0.0201
11 | B11 | -0.31
12 | B12 | 0.261
13 | B13 | 0.14
14 | B14 | 0.157
15 | B15 | -0.0362
16 | B16 | 0.182
17 | B17 | 0.368
18 | B18 | 0.107
19 | B19 | -0.134
20 | B20 | 0.0777
21 | B21 | 0.204
22 | B22 | -0.0104
23 | B23 | -0.067
24 | B24 | -0.0167
25 | B25 | -0.553
26 | B26 | 0.242
27 | B27 | -0.129
28 | B28 | 0.256
29 | B29 | -0.0837

Reference: the supplement of paper PMC12632987
